The values below come from the supplement of paper PMC11417369.

This is one part of the list.

This experiment relates to PfAP2-HC AP2 domain (GST-tagged). Kind of experiment: gcPBM binding intensity (ln(normalized median fluorescence intensity)); higher = stronger DNA binding. The essentials: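 GST-fused DNA-binding domains of P. falciparum, expressed in E. coli, were applied at about 25 μg on average for 1 h to an Agilent 4 × 180k array of primer-extended double-stranded 36-bp intergenic genomic probes and negative controls. Binding intensity is the highest Masliner-normalised natural-log median intensity across replicate spots of either probe orientation, measured with Alexa488 anti-GST antibody and a 488 nm scan.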
In the case of “GGTAGGTGAATATATACACACATATATTATATATAT [CACACA_site1984]”, the “gcPBM binding intensity (ln)” value was determined as 10. In the case of “TTTTACAAGTATTGATAAATAAGAAATATATAAAAT [CACACA_negctrl_site529]”, the “gcPBM binding intensity (ln)” value was determined as 9.42. As for “AAAAAAAATTAAGCATGTATAAATATATATATATAT [CACACA_negctrl_site1540]”, the “gcPBM binding intensity (ln)” value worked out at 9.67. Under “GTGTATTTTGTGCGCACACACATGCAAAAAGAAATA [CACACA_site6660]” stands 10.6; under “TAACACATAAATAAATATATACATATATATAAAATA [CACACA_negctrl_site375]”, 9.78; under “AATATATCATAATGATGTACAAGTAAAACCGTTACA [XGTACX_site4280]”, 9.7.

As to “AATATATATATATATACATGCATATATTCCTTCCTT [TGCATGCA_site890]”, the “gcPBM binding intensity (ln)” value stood at 9.64.

“ATTCTTTTAAACAGTACACACACACCGATATATATA [CACACA_site8213]”: the “gcPBM binding intensity (ln)” value was determined as 10.7. For the sequence “AAAAACTTATATGATACACACGATAAACAAAATAAA [CACACA_site1039]”, the “gcPBM binding intensity (ln)” value was 9.89. On to “TTTGTGCCTATAAATTAACACACAGAAATATATAGA [CACACA_site8175]”, for which the “gcPBM binding intensity (ln)” value was 9.76. On to “CAAAAATACATTATAATAATATGCACAATAATAAAT [XGTACX_negctrl_site263]”, for which the “gcPBM binding intensity (ln)” value came to 9.88. “GATCTATATATCATTACACACTTGAATTACTTAAAA [CACACA_site21]”: the “gcPBM binding intensity (ln)” value is 9.59.

For the sequence “ATAAAATAAAATTGGTGTACTTTTGATAAAATAAAA [XGTACX_site4264]”, the “gcPBM binding intensity (ln)” value was found to be 9.59.

As to “TTTTTTTTTTTTATTTGTACACATTTTCATATTTTT [XGTACX_site4406]”, the “gcPBM binding intensity (ln)” value was 9.81.

Consider “TATATTTACTCTAAGTGTACATATTATTTTATAATA [XGTACX_site2046]”, for which the “gcPBM binding intensity (ln)” value was 9.53.

Take “TATATATATATGTGCACACATAAAGATATTATTTTT [CACACA_site3733]”: the “gcPBM binding intensity (ln)” value came to 10.2. The result for “AAAAGTAAAAAAAGCACACACGAAAAAAAATAAAAA [CACACA_site5264]” reads 10.2; that for “TCCATAAATAATTGTAGTACACATACTATGTGACAT [XGTACX_site7268]”, 9.65.

For the sequence “ATATATATATATATGTGTACATATAAGATAGAAGAA [XGTACX_site3198]”, the “gcPBM binding intensity (ln)” value amounted to 10.2. “TATTTATTTATAAATGCATGTCGCTCTTTTTATTAC [TGCATGCA_site626]”: the “gcPBM binding intensity (ln)” value came to 9.96.

For “AACTATAAAAGTTTTACACACTGTTTTTAAATAATG [CACACA_site7686]”, the “gcPBM binding intensity (ln)” value turned out to be 9.63. With “TTATGCATAAAAGGTGGTACTCCGTATATACATTCT [XGTACX_site4354]”, the “gcPBM binding intensity (ln)” value is 9.62. For the sequence “ATTATTATAGATATAACACACATAATTACATACTTA [CACACA_site6837]”, the “gcPBM binding intensity (ln)” value came out at 9.72. Under CAGTTGTTAATTTGTGTGCACCAAATATTATACATA stands 9.75; under “ATAATTCCATAAAATAGACACACGAATGTATAATAT [CACACA_site477]”, 9.89; under “ACATATGAATATAATACACACTTGTATTCTTAATAT [CACACA_site5085]”, 9.79. For “TGTAGATAAAATAAACGTACGTATTGATTTTTTTCA [XGTACX_site1610]”, the “gcPBM binding intensity (ln)” value was 9.55. In the case of “TATTTGTAAAGACATGCATGGTACTTTTAAAACATA [TGCATGCA_site7]”, the “gcPBM binding intensity (ln)” value amounted to 9.6.

With “TTAATATTTGTTCTGATCCTTTTATTCAACTTTTTT [CACACA_negctrl_site536]”, the “gcPBM binding intensity (ln)” value was determined as 9.69.

“TGGTAATACCCATACACACACACATACACATATATA [CACACA_site8877]”: the “gcPBM binding intensity (ln)” value came to 10.3. “TTTTCTTTCTTGTTTCGTATATTATAAAAAAAAAAG [CACACA_negctrl_site854]”: the “gcPBM binding intensity (ln)” value came out at 9.17. “TATTTGGGTATTTTTACACACATTAAAATATATATA [CACACA_site5800]”: the “gcPBM binding intensity (ln)” value was 9.67. Turning to “GTATTTTGCATAAATGCATGTAAATATATACCTACC [TGCATGCA_site957]”, the “gcPBM binding intensity (ln)” value came out at 9.56. For “TTTTTGTATTCTCCGGACTACATTATGTTGTAAATG [CACACA_negctrl_site691]”, the “gcPBM binding intensity (ln)” value was found to be 9.85.

Take “GTAATAAAAAATTAATGTACTTTATATAATATATTA [XGTACX_site5935]”: the “gcPBM binding intensity (ln)” value was 9.48. For “TCTAATTTAAAATACACACACATATCTATAATATAT [CACACA_site7029]”, the “gcPBM binding intensity (ln)” value turned out to be 10.1. Under “GTATAAAAATTTAGGAGTACAATATATTTATAATAT [XGTACX_site2127]” stands 9.67; under “TATTGTATAAAAATAACATGCAATCCTTATACTGCT [TGCATGCA_site345]”, 9.57. With “TGTACAGTAAATACAACACACATTTGTATAAATATA [CACACA_site4705]”, the “gcPBM binding intensity (ln)” value turned out to be 10.1. Under “TAATATATAAAAAGATGTACTTTTGCAAGTTCCTTT [XGTACX_site8519]” stands 9.54; under “GGACTTTATAAAAATGGTACACGCAATTCTATAATC [XGTACX_site6515]”, 9.61; under “GGTACATACAAACACACACACAAAAAAAAAAAAATA [CACACA_site1577]”, 10.3. As to “ATATATATATATGTATGTACGTATGTATGTATGAAT [XGTACX_site4857]”, the “gcPBM binding intensity (ln)” value was 10. With “CCATATGATATATATTGTACATTATATATTATTTCT [XGTACX_site1697]”, the “gcPBM binding intensity (ln)” value came to 9.68. “TATGTTGTTTATTTAGTGCATATTTAAATATTATAA [GTGCAC_site9601]”: the “gcPBM binding intensity (ln)” value was 9.65. Turning to “AATGACATTCTTACACGTACAAAATAAAAAATAAAA [XGTACX_site6932]”, the “gcPBM binding intensity (ln)” value amounted to 9.66. “TATATATTATATTCATGTACGTAAAAATTTTGAATA [XGTACX_site6734]”: the “gcPBM binding intensity (ln)” value was 9.49.

Regarding “ATTTATTTTATAATATATAAATGATATATCTTATTA [CACACA_negctrl_site66]”, the “gcPBM binding intensity (ln)” value was found to be 9.51.

Regarding “TATATATATATATATTGTACATATTAATATTAGAAA [XGTACX_site8923]”, the “gcPBM binding intensity (ln)” value amounted to 9.51. As to “ATTACCATATAAAACACACAAACATACATACATACA [CACACA_site3729]”, the “gcPBM binding intensity (ln)” value amounted to 9.97.

Take “TGGAGGTCAGTTCACAGTACCCAGAAACTCTACGAG [XGTACX_site2007]”: the “gcPBM binding intensity (ln)” value turned out to be 9.26. In the case of “TGAAATAACCCATGTGCATGCACTTCAATAACTGAA [TGCATGCA_site1041]”, the “gcPBM binding intensity (ln)” value worked out at 9.6. For TATAAATTAAAATCAGTGCATATTTTGAAAAACCTC, the “gcPBM binding intensity (ln)” value came to 9.66. As to “ATATTATTATTAGTTTCACACATTTAATGAAACTAA [CACACA_site5677]”, the “gcPBM binding intensity (ln)” value is 9.43. For “TATAAATTATAAATTGCACACATATTTTTATATTTA [CACACA_site8974]”, the “gcPBM binding intensity (ln)” value was 9.72. As for “TTACATGTAAAAGGTACACACATTAGATATACAAAT [CACACA_site6651]”, the “gcPBM binding intensity (ln)” value stood at 9.96. Consider “AATACTCAAAAGAATCGTACAAACAACACTCCCACG [XGTACX_site7564]”, for which the “gcPBM binding intensity (ln)” value was 10.4.
